Source: the GPR68 mutational scans of Howard et al. (2025)

B1: GPR68, Q15743 (parent)
chain: MGNITADNSSMSCTIDHTIHQTLAPVVYVTVLVVGFPANCLSLYFGYLQIKARNELGVYLCNLTVADLFYICSLPFWLQYVLQHDNWSHGDLSCQVCGILLYENIYISVGFLCCISVDRYLAVAHPFRFHQFRTLKAAVGVSVVIWAKELLTSIYFLMHEEVIEDENQHRVCFEHYPIQAWQRAINYYRFLVGFLFPICLLLASYQGILRAVRRSHGTQKSRKDQIQRLVLSTVVIFLACFLPYHVLLLVRSVWEASCDFAKGVFNAYHFSLLLTSFNCVADPVLYCFVSETTHRDLARLRGACLAFLTCSRTGRAREAYPLGAPEASGKSGAQGEEPELLTKLHPAFQTPNSPGSGGFPTGRLA

How the values were obtained:
[1] = variants of: B1; experiment: cAMP reporter score (Enrich2 score, wild type = 0); higher = more signal; HEK293T, FACS bins
[2] = variants of: B1; experiment: surface expression score (Enrich2 score, wild type = 0); higher = more signal; HEK293T, FACS bins

Variant	cAMP reporter score ([1]; pH 5.5)	cAMP reporter score ([1]; pH 6)	cAMP reporter score ([1]; pH 6, modulator: ogerin)	cAMP reporter score ([1]; pH 6.5, modulator: ogerin)	surface expression score [2]
T14_I15del	-1.66	-0.517	-1.1	-0.76	-1.68
N3_I4insGSG	0.252	0.112	0.889	-0.041	0.836
N3del	0.542	–	-0.293	–	-0.368
T14_D16del	-1.56	-0.763	-1.77	-1.3	-1.52
M11del	0.264	0.542	0.336	0.253	0.031
N8_S10del	0.553	0.088	0.941	-0.225	–
S9_S10insGS	-0.296	-0.862	-0.212	-1.1	-1.35
N3_T5del	0.261	-0.001	0.346	0.18	-0.555
I15_D16insGS	1.68	-0.541	1.57	0.315	0.457
N8_S9insGSG	-0.436	-0.233	-0.457	-0.428	-0.266
C13_T14insGSG	-0.77	-1.17	-1.39	-0.271	-0.72
D7_N8del	-0.204	-0.534	-0.074	-0.813	-0.335
S12_T14del	-1.47	-1.38	-1.94	-0.815	-1.78
T5_A6insGS	-0.408	0.061	-0.463	-0.251	-0.812
I4_T5insGS	-0.606	-0.196	-0.836	-0.745	-1.05
N3_I4del	0.067	-0.717	0.626	0.277	-0.078
S10_M11del	0.385	-0.046	0.489	0.595	0.487
S12del	-0.165	-0.077	-0.463	-0.004	-0.714
A6_D7insGSG	0.021	0.503	0.056	0.81	0.336
C13del	-1.64	-0.163	-1.39	-0.983	-1.48
T14F	0.362	-0.512	0.366	-0.395	0.998

Variant	cAMP reporter score ([1]; pH 5.5)	cAMP reporter score ([1]; pH 6)	cAMP reporter score ([1]; pH 6, modulator: ogerin)	cAMP reporter score ([1]; pH 6.5, modulator: ogerin)	surface expression score [2]
T14S	1.01	1.08	1.1	1.98	0.778
T14W	0.045	-0.418	0.068	-0.304	0.534
T14C	1.14	-0.093	0.49	0.021	0.371
T14H	-0.172	-0.246	0.047	-0.549	0.6
T14R	0.416	-0.343	0.317	0.048	0.114
T14I	1.23	-0.2	1.21	0.14	1.36
T14G	1.05	0.108	1.07	-0.043	0.879
T14A	1.07	0.926	1.18	0.853	1.02
T14V	0.407	0.511	0.772	0.408	0.918
T14D	1.24	-0.127	0.873	0.01	1.77
T14K	0.759	0.261	0.349	-0.012	1.18
T14M	-0.358	-1.21	-0.377	-0.856	-0.611
T14L	0.249	-0.755	0.315	-0.543	0.763
T14P	0.076	-0.379	0.098	-0.386	0.087
T14N	1	0.37	0.996	0.827	0.47
T14Q	0.019	-0.643	0.432	0.374	-0.271
T14E	0.375	0.39	-0.003	-0.006	-0.719
S12_C13insGSG	0.119	-0.246	0.157	-0.134	0.057
I4_A6del	0.103	-0.235	0.068	-0.058	-0.682
D7I	0.16	1.22	0.125	0.782	-0.381
D7G	0.617	0.304	0.649	0.412	0.025

Variant	cAMP reporter score ([1]; pH 5.5)	cAMP reporter score ([1]; pH 6)	cAMP reporter score ([1]; pH 6, modulator: ogerin)	cAMP reporter score ([1]; pH 6.5, modulator: ogerin)	surface expression score [2]
D7W	0.253	0.23	0.143	0.188	0.339
D7P	0.986	–	1.2	1.14	0.934
D7T	0.995	2.68	1.91	2.49	1.89
D7Q	2.21	–	2.44	2.45	–
D7A	0.392	1.86	1.42	0.816	0.27
D7H	0.569	0.105	-0.059	0.745	-0.478
D7F	0.834	1.29	0.742	0.355	-0.303
D7C	-0.008	-0.546	-0.017	-0.029	-0.916
D7L	-0.63	0.111	-0.39	0.252	-0.564
D7M	1.49	1.05	1.34	0.677	0.278
D7Y	0.219	0.856	0.426	0.523	0.213
D7N	-0.461	0.313	-0.591	-0.347	-0.427
D7V	0.826	1.53	0.862	1.95	0.204
D7E	-0.496	-0.391	-0.744	-0.705	-1.38
D7S	0.697	0.322	0.075	0.238	-0.012
D7R	0.833	-0.486	1.38	2.47	0.082
S9del	0.716	0.518	0.346	0.527	-0.24
G2_N3insG	0.793	0.634	0.538	0.947	0.614
S9_S10insG	0.084	-0.52	0.107	-0.667	-0.235

Scores whose standard error is large were omitted. Not listed are two conditions whose scores span a narrow range. Names with del lack the residues named; names with ins carry added residues between the positions named. For some assays here: The concentration of ogerin is not given here.
